We go through 167 variants from the RNAGym collection of RNA variant scans (doi:10.7554/elife.90254).

B1: LINE1-mini (parent)
chain: GGCAGAGCUCAACACAGCGUGGCAAAGUGGCUGUGGCUAGACUGCC

The source gives no read counts; variants with many changes may rest on few reads.

Variants of B1 are the subject of this data set. The data set can be described thus: self-cleavage, relative activity (ratio to wild type); higher = more cleavage; in vitro, sequencing; the parent is a self-cleaving ribozyme.
Regarding A26C C37A C45A, the self-cleavage came out at 0.02. Next, G27C U28G G40C: 0.07; A26G G33U U43A: 0.06. As to G27A C37U G44C, the self-cleavage amounted to 0.06. As for A26U U28A C42A, the figure is 0.07.

For A26U G44U C46A, the self-cleavage was determined as 0.04. Next, A25U U34C G36C: 0.07; A26U A39C C42U: 0.05; A26G G29U U32A G40A: 0.11. On to A26C U32A U38A G40U, for which the self-cleavage is 0.01. Take A26C C31G C46U: the self-cleavage amounted to 0.04.

In the case of A25U U43C C45A, the self-cleavage was found to be 0.07.

As for A26U C42G G44A, the self-cleavage was 0.07. Next, A26C G29C G35U: 0.02; A26U U34G C37G: 0.03; A25U U32G A41U: 0.1.

Regarding A25G G30C G36C, the self-cleavage was found to be 0.06. For A26G U32G U38C, the self-cleavage was determined as 0.12. Next, G27A U34C U38G: 0.01.

As for A25G G35C C42U, the self-cleavage amounted to 0.04. Take A25U A26U A39C A41C C46A: the self-cleavage came to 0.03. Next, A26C C37A A39G: 0.07; A26U G30A C31G C45A: 0.05; A25G G36U C37U: 0.02. Next, A26G U28C A41U C46A: 0.2; A26G C31A U38C: 0.03. As for G27U C37A U43A, the figure is 0.01; as for A26C U28C G33A C42A C46A, 0.06; as for G27U C31U G33C G40U, 0.11. As for A25U A39C U43C, the self-cleavage is 0.02. Take G27A U34C G35A: the self-cleavage stood at 0.07. Next, A26G G29C C46G: 0.32; A26C G27U G30U: 0.73. As for A25U A26G G33A G44U, the figure is 0.03; as for A26G U28C U32A, 0.15. Next, G27U C31U G33U: 0.04; A26U U28C A39U: 0.85. Take G27C C31A A41C: the self-cleavage amounted to 0.01. On to A26U G27A G30C, for which the self-cleavage is 0.9. As to G27C G29C G35A, the self-cleavage was 0.13. Next, G27A G30U U38A G40U U43C: 0.12; A26G G30U G40C U43A C46G: 0.03. Regarding A25U G36U A39G, the self-cleavage was 0.7. Next, A26C G40U A41U: 0.1; A25U G35C A41G: 0.05.

G27A G29U G36U: the self-cleavage stood at 0.01. In the case of A26C G30C C42A, the self-cleavage came out at 0.06.

For the variant G27A G29C C31A, the self-cleavage was 0.52. As for A25U G27A U38A, the figure is 0.17; as for G27C G29U U34A, 1.04.

As for A26C A41C C46U, the self-cleavage was determined as 0.07. As to A26U G35U C45A, the self-cleavage amounted to 0.13. For the variant A26G G35U C46G, the self-cleavage came out at 0. As for A26G G35U C46U, the figure is 0.06. Take A25U G30C C31U: the self-cleavage came to 1.64. Regarding A26U U38A A41U, the self-cleavage is 0.09. Next, G27C C37U A39G: 0.

In the case of A26C G35A G36A, the self-cleavage was found to be 0.15.

On to A25U G27C A39G, for which the self-cleavage was 0.09. For G27C G35A C42U, the self-cleavage is 0.03. As for A26G U32A A39G, the figure is 0.01; as for A25U G35U G36C C45G, 0.04.

Consider A26U U32A G40U A41G U43C, for which the self-cleavage turned out to be 0.02. Take A25G U38A G44C: the self-cleavage is 0.15. A26G G33C G40U: the self-cleavage was found to be 0.07. For G27C C31U G40U A41U, the self-cleavage was 0.01.

For the variant A26G U32G C42U, the self-cleavage came out at 0.04. As for G27C G35U G36A, the figure is 0.3; as for G27C U28C G29U G44A, 0.19. As for G27C C42G U43A, the figure is 0.11; as for A26U G35U U43A, 0.11; as for A25U U28C G30U G44A C46G, 0.07.

With G27A G29U U32A, the self-cleavage was 0.12. Next, A25U G35C C42A: 0.02; A25U G33C C37G: 0.03; A25U U38C C45G: 0.41. As for A26G G35U C42U, the figure is 0.03; as for A25G G35A G36C A41U, 0.01. Regarding A25U A26C G29C, the self-cleavage is 0.13. Next, A25U U32C C37U: 0.08. With G27A A41G U43A, the self-cleavage amounted to 0.07. Next, G27C G29C G35C C37G G40U: 0.03. Next, A26G G36C A39U: 0.07. Next, A25G G30U C31G: 0.08.

As for G27A A41C C45U, the self-cleavage came to 0.06.

For the variant A26U G29U G36U U38G, the self-cleavage came out at 0. Consider G27A G30A A39C G44C, for which the self-cleavage was determined as 0.07.

A25U G27A U32G: the self-cleavage worked out at 0.2. Regarding A26G C31A U32C C42G, the self-cleavage is 0.01. Next, A26C G30U G35A U38G C46U: 0. For the variant G27A G36U A41U, the self-cleavage came out at 0.07. In the case of A25G G30U G33A G44C, the self-cleavage was 0. As for A26U C31A C37A, the figure is 0.02; as for A26G U34G C42A, 0.01; as for G27C G35C U38C, 0.01. As for G27C G35C U38G, the figure is 0.05. A25U G27C G30A U34A: the self-cleavage came to 0.09. As for A26U G36C C37A, the figure is 0; as for A25U G30U U38G U43G G44A, 0.01.

As for A25G G30U A41C, the self-cleavage was 0.02.

A25G G29U A39G A41C: the self-cleavage is 0.01. On to A26C G30U G33U C45A, for which the self-cleavage was found to be 0.06. Take G27A U28C G29C G44U: the self-cleavage was 0.05. As for G27A C31U G35A, the figure is 0.04. In the case of A26U G27C U28C C42A, the self-cleavage amounted to 0.13. As for A25G G30U C37G C46U, the figure is 0.05. As for A26C U32A U43C, the figure is 0.31; as for A25U C31A C45U, 0.03; as for G27C C37U C42A, 0.06.

As for A25U U38C G40A, the self-cleavage was determined as 0.04.

On to A25G G35U C37A, for which the self-cleavage turned out to be 0.08. Next, A26U G33U C45A: 0.04; G27C C31U G40C: 0; G27A G29A G35U: 0.08. As for A26U G40A C46A, the figure is 0.09; as for G27A C31A G40U, 0.08; as for A26G C37A C42A, 0.09. Consider A26G U43A G44A C46G, for which the self-cleavage was 0.01. On to A26U A41C U43G, for which the self-cleavage was 0.03.

In the case of A26G C37G C46A, the self-cleavage came out at 0.02. Turning to A25U G33A C37G, the self-cleavage turned out to be 0.03. As for G27A C31G C46U, the figure is 0.3; as for A25G U28C G33C, 0.05. Consider A26U C31A A39C C45G, for which the self-cleavage came out at 0.04. As for A26C G33C C37A, the figure is 0.06. Take G27U C37A U38C: the self-cleavage worked out at 0.04. Next, A25U G40U G44A: 0.05; G27U C31G C37A A39C G44A: 0.03; A25U G27C G29C: 0.51.

Consider G27C G33U U38G, for which the self-cleavage worked out at 0.03. A26U G27A C31G: the self-cleavage is 0.07. Next, G27C G36A U38A G44A C46G: 0.04; G27A G30U C42G: 0.09.

With A26C G29C G33C, the self-cleavage stood at 0.47. Next, A26U C31U C42U: 0.03; A25G U32C C42A C45G C46U: 0.

With G27A G35A A39C, the self-cleavage is 0.02. As for A26C U43C G44A, the self-cleavage stood at 0.04. Take A26C G29A U32G: the self-cleavage came to 0.3. Next, A25U U28G G40A C42U: 0.13. Regarding A26U G27U A41U C45G, the self-cleavage turned out to be 0.13. Next, A26G A41G C42U U43A: 0.07. Take A26G G36A G44U: the self-cleavage is 0.13.

Take G27A G33A G35U: the self-cleavage turned out to be 0.07. Next, G27A G30C A41U: 0.15. As for A26G G29A A39G C42G C46U, the figure is 0.04; as for A25U G29U C31U U38C G44U, 0.02; as for G27A G44U C46A, 0.32. As for G27C U38A C46G, the figure is 0.56.

As for A26C U28C C31U, the self-cleavage came out at 0.05. For the variant A26U G35A C37G C46U, the self-cleavage stood at 0.03. Regarding A26G A39G A41G C42U, the self-cleavage is 0.05.

As to G27A G36U G44U C46U, the self-cleavage is 0.01. As to G27C G29C C46A, the self-cleavage stood at 0.54. Consider A25U U28C G40U, for which the self-cleavage came out at 0.31. As for G27C U43G C45G, the figure is 0.3; as for A25U G40A C45G, 0.02; as for A26C G30U U38C C46U, 0.6.

Turning to G27A U28G U38G, the self-cleavage was found to be 0.05. As for G27C A39U C46U, the figure is 0.29; as for A26C G29A U34G G36A G44C, 0.5; as for A25G U28A G29A U38C C42A G44A, 0.04. As for G27U C31G C37A, the figure is 0.07; as for G27A G33C C37U, 0.09; as for A26C U34G A39C, 0.14. For the variant A26C G29C C46A, the self-cleavage was found to be 1.33. As for A26C U28A G29C G35C, the figure is 0.04.
